From the supplement of paper PMC11417369
The other results are listed elsewhere or left out.

system: PfHDP1 homeodomain (GST-tagged); assay: gcPBM binding intensity (ln(normalized median fluorescence intensity)); higher = stronger DNA binding
Method in brief: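 Alexa488 anti-GST antibody, scanned at 488 nm, detected GST-tagged P. falciparum DNA-binding domains that had been expressed in E. coli and incubated for 1 h on an Agilent 4 × 180k array. The array carried primer-extended double-stranded 36-bp intergenic genomic probes and negative controls. Binding intensity is the highest Masliner-normalised natural-log median intensity across replicate spots of either orientation of each probe.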

| Sequence | gcPBM binding intensity (ln) |
| --- | --- |
| AACCATAAAAAGTGTACACATATAAAAAATATGGAA [CACACA_site4199] | 7.4 |
| TATATAAATTAACCAGTGCATTATTTGGAAATTATT | 9.4 |
| ATATATCATCATGTATGTACACACATACATATATTA [XGTACX_site2814] | 6.64 |
| TATGCTTTTACAATGTGTACTTATATTTTTCACAGG [XGTACX_site6201] | 6.79 |
| TAATTTTCAATAATTTGTACATAATTTTTATAAATT [XGTACX_site8133] | 6.29 |
| ACAATTATTTTGTTCTTTAATGGTAGGTTCTATGTC [CACACA_negctrl_site1419] | 6.17 |
| TTACACATGTTTAACTGTACACATAATAGCAATATT [XGTACX_site8545] | 7.27 |
| CATAAATTACTTTTTACACACTAAAATAAAATACAA [CACACA_site1135] | 6.46 |
| AATACACGCAGACACACACACACACGCACATATATA [CACACA_site6447] | 7.39 |
| CTAAAAAATAGTAAAAGTACATAAATAATTTTGCTT [XGTACX_site8919] | 5.74 |
| ACATAATAAAAATAAATTCATAAGTAAATAAATAAA [TGCATGCA_negctrl_site186] | 6.23 |
| TGAATAAATCAAAGCACACATACACCCACATATATA [CACACA_site286] | 6.98 |
| TGCTACATTTTATGTACACACATATACAGATATATA [CACACA_site4646] | 6.36 |
| GAAAAAAGAAATTAAACATGCATCTGCAAATTTAAA [TGCATGCA_site974] | 6.29 |
| AATAATATTTAATACACACACCAGTTCTGCAAATTT [CACACA_site7712] | 7.3 |
| AATAGTAAAAGATATACACACACCAAAAAATATAAT [CACACA_site5293] | 7.22 |
| CAGGGCAGGGGGAAGGGTACACATAAAAGAAAATAA [XGTACX_site172] | 7.31 |
| AAAAATAAACGACAGTGTACTAAATATTTAATTTTC [XGTACX_site3580] | 6.4 |
| TATTCTAAAGAAATTACACACATGCAATGAAAAAAA [CACACA_site6895] | 6.48 |
| TATAAATATATATTTTGTACTTAATATAAATTTATA [XGTACX_site7996] | 6.31 |
| ATACAATTTATTTTAACACACGAATGAATTGATTAT [CACACA_site4160] | 6.3 |
| ATACAAATATACTTTTGTACGAAGAAATATATATAT [XGTACX_site3912] | 7.87 |

| Sequence | gcPBM binding intensity (ln) |
| --- | --- |
| GGTTCATATCTTAACACACACATACATATTATAGAT [CACACA_site7392] | 7.08 |
| TAAAGAAACTATTCAACACACGGTCTAATTATTACA [CACACA_site1064] | 6.15 |
| ATAAAAAAAATAAAAAGTACAAAAAAAAAAAATGGA [XGTACX_site136] | 6.64 |
| TTATATATTTTTATGTGTACTTATATATATATATAT [XGTACX_site6211] | 8.92 |
| TACTTATTTAAAATAGTGCATGAATAGAAGATATAT [GTGCAC_site9756] | 7.65 |
| AACAAAAACACTTTTACACACATAAGTAAAATATAT [CACACA_site1994] | 6.62 |
| ATTTCCCTATATAGAGCATGCACTATATTCAAATGA [TGCATGCA_site531] | 8.59 |
| CACAAAGACACAAACACACACACACCCACATACATA [CACACA_site452] | 6.86 |
| TTTTATAATTTCTTCTGTACATATATATGAAAATAT [XGTACX_site74] | 6.67 |
| TCAACCAAAACATAAGCATGCAATATATTTTTATAC [TGCATGCA_site560] | 6.56 |
| AAAAAAAAATATAACAGTACATAAACATATGAATAT [XGTACX_site7093] | 6.39 |
| TATGAAGTACACAATACACACTAATTATATATAAAT [CACACA_site5444] | 6.69 |
| TTTTTAAAAAAACATACACACAAAAAAAAAAAAAAA [CACACA_site3935] | 6.29 |
| AATATTTATTTTATATGTACATAATTTATTTTTAAT [XGTACX_site776] | 6.45 |
| AAAAAAAAAAAAAAAACACACAAGGATCATATATAT [CACACA_site3812] | 6.57 |
| GATTTGTCTTACAGTGGTACACTTATATATATGTGA [XGTACX_site2899] | 6.69 |
| TTTTTTTATATAGACACAAAAGAAAATTACATATAC [CACACA_negctrl_site235] | 6.49 |
| TATAATATATATATATTTATATATATCTTCCTAATC [GTGCAC_negctrl_site682] | 6.08 |
| TATAAATATAGACACACACACACCAAAGCGTAGCGC [CACACA_site6179] | 6.45 |
| TATATATATTATAATACATGCGGTGATGAAAGTTAT [TGCATGCA_site924] | 7.13 |
| CAATTTTACTCATAAACACACATATAGATGTTATTA [CACACA_site7474] | 6.52 |
| TATATATATATATGATGTACATGAAAATTTCCAAAA [XGTACX_site5472] | 9.27 |
